# The list shows a part of the results. At the low end of the ranking the order means little.
# Biological target: T1, GST-Rok (full length) (UniProt O34857)
# T1 sequence: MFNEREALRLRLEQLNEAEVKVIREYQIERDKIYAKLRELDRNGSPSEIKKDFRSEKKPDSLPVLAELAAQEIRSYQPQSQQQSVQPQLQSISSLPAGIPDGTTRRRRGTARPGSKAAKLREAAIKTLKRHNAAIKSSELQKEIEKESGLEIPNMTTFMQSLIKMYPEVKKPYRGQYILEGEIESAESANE
# Assay: protein binding microarray;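 further: rank score from −0.5 (least bound) to 0.5 (best bound)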
# Details: Rok is a gene silencer of Bacillus subtilis; high values mean tight binding; most listed sequences are background and not binding sites; double strand, one strand shown
row,Sequence,binding signal [E-score]
1,GGGATAAA,-0.101
2,AAAACTTG,-0.187
3,GGGACGCA,-0.274
4,ACGCAAGC,0.0878
5,ACCAAATA,0.216
6,ACCGTCTA,0.0617
7,GCTCTATA,0.0683
8,CCAAAGCG,-0.211
9,GGGTGGCA,-0.26
10,AAAGATAA,0.322
11,GAAAGCGA,-0.0562
12,ATGATTCA,-0.0428
13,AACAAAAC,-0.0461
14,CGTCTGTA,0.0878
15,AGGTCGAG,-0.00394
16,ACTAAATC,0.343
17,GATTCCAC,-0.154
18,CGTAGCAA,-0.123
19,CCGACTCA,-0.0679
20,TATGCGAA,0.0917
21,CACTGCCC,-0.291
22,AGTTTAAC,0.138
23,GCCAGGGC,-0.315
24,GGGGGTCA,-0.442
25,GTCAGTCA,-0.0623

row,Sequence,binding signal [E-score]
1,CGGGGTTC,-0.316
2,CCAGCGCA,0.0566
3,CCGTGTCA,-0.221
4,CAGTTATG,0.188
5,CCATCCGC,-0.114
6,GCACCCAC,-0.0904
7,CATATCCA,0.139
8,AGATTTTG,0.0323
9,CAAAGGAA,-0.261
10,ATTGCCTA,0.0706
11,CAACCTTA,0.0684
12,ACAGCTAC,0.143
13,CATGCCGC,-0.239
14,AATCTGGC,-0.308
15,TCAACAGA,-0.0866
16,AGGAGCCA,-0.339
17,AACTGGTG,-0.0126
18,AACTCGTC,0.028
19,GCCGTGGA,-0.109
20,AGGACTGA,0.0533
21,GATCGCCC,-0.065
22,CGGAGCTC,-0.192
23,TCGACCAA,0.0596
24,ATGTAGAA,0.423
25,GGATCGCA,-0.241

row,Sequence,binding signal [E-score]
1,ACTCGTAT,0.0124
2,GCGCTAAC,0.0627
3,GACTACTC,0.132
4,AAAATACC,0.373
5,CGATGCAA,0.0679
6,ATCTTCCC,-0.0921
7,TCATACAA,0.129
8,CCGTTGAC,-0.306
9,GTATGCTA,0.201
10,CGGGCAAC,-0.298
11,CCCCTCGC,-0.314
12,GGGTCTGA,-0.19
13,CCGAATCA,-0.0978
14,GAACTGCC,-0.139
15,GCATATAA,0.127
16,AGGCTTAC,-0.174
17,ATTTGACG,0.125
18,ACTCGTAA,0.135
19,ATGATTGG,-0.195
20,CGCCCCTA,-0.218
21,AGCAACAT,0.0691
22,GCGGTGTA,-0.0709
23,ACGCGATA,0.157
24,CTGGGAAA,-0.107
25,CACGCAGA,-0.0133

row,Sequence,binding signal [E-score]
1,CATTCCAG,-0.244
2,AACAAGCC,-0.118
3,CGGGCCAG,-0.277
4,CGCGCCGC,-0.298
5,AGGGAGTG,-0.279
6,CCAATTAA,-0.0711
7,ATTGCTAC,0.247
8,AATGGTTA,0.128
9,GCTATTAA,0.189
10,CATAAAAG,0.102
11,AGTTTTAG,0.256
12,GATCGCGA,0.177
13,CCAACAGA,-0.0602
14,CTCACCTC,-0.154
15,CCTGTGAA,-0.197
16,CCTGTGGC,-0.315
17,CGTGTCCA,-0.186
18,AACACCAT,0.0536
19,ACGACCTC,-0.11
20,ACTCATTC,0.043
21,TCATAACA,0.0898
22,GAATCATC,-0.114
23,GGAAAAGA,-0.0377
24,CAATGGCC,-0.0754
25,AGAAACGG,0.0479

row,Sequence,binding signal [E-score]
1,GCTCTTCA,-0.032
2,CTAAAGAG,0.00604
3,ATTTGCGC,0.0911
4,GGTGGATA,-0.012
5,ATTGGGAA,-0.0874
6,CTGCACAA,0.159
7,CTGCGACA,-0.167
8,TGAACGCA,-0.112
9,AGGACCGG,-0.183
10,GCGACAAC,-0.145
11,TCCGCGAA,0.0264
12,GCCTATCA,-0.0333
13,ACGGAGCA,-0.0635
14,CCGGGGGC,-0.425
15,CGAACGAG,0.00802
16,ATTCTACC,0.442
17,CAAGATAG,0.221
18,AACATGGT,0.12
19,GGACTTAC,0.0153
20,AGGGTCGA,-0.177
21,AAGGTACT,0.183
22,ATTTGGTG,0.0849
23,ACTGAAAG,0.0652
24,ACCGCAGT,0.0335
25,AATCAGAG,-0.104

row,Sequence,binding signal [E-score]
1,AGATTGAG,0.172
2,CGAGCTGC,-0.23
3,CTCATCAA,0.00689
4,GCTCACCA,-0.175
5,AGTGTACG,-0.00494
6,AAAGTTAT,0.271
7,AATAAACC,-0.00939
8,GCGACCGC,-0.258
9,GCTGTTGA,0.00859
10,AAGTTGCC,-0.0279
11,AGTCACAT,0.195
12,AGATATCA,0.127
13,CCCCGGCG,-0.361
14,TACTATCA,0.35
15,GCCCTTAC,-0.0744
16,AGGCTGAC,-0.124
17,CCCGTCAC,-0.261
18,CACCGGTA,0.056
19,ACGTCGTG,0.0249
20,GAACAAAC,0.0908
21,CATCCATG,0.00106
22,AACTGGGC,-0.224
23,AAGAACCC,-0.203
24,GACCTTCC,-0.391
25,CACTAGCG,-0.204

row,Sequence,binding signal [E-score]
1,ACTCGGGC,-0.244
2,ATAAGGAT,0.109
3,CCTTCATC,-0.103
4,CGAGAAAG,-0.157
5,CATGATGC,0.112
6,GTAATCAC,-0.106
7,GTCTTTGA,-0.162
8,CACTCTTC,-0.167
9,GTGGGCAA,-0.12
10,ACCCGACT,-0.116
11,TGCAATAA,0.0325
12,ACGGAACT,0.182
13,CGCTATCC,0.0105
14,CAACAGAA,-0.146
15,ACATCTCA,0.0868
16,CACAATAG,0.312
17,CACGCCCC,-0.34
18,CAGAGTGG,-0.106
19,CGGACACG,-0.142
20,GTAACAGA,0.12
21,CTACATAA,0.267
22,AAGTAGCT,0.264

# Source: publication PMC6212790
